{
  "source": "the RNAGym collection of RNA variant scans (doi:10.7554/elife.90254)",
  "parents": {"B1": {"name": "LINE1-mini (parent)", "chain": "GGCAGAGCUCAACACAGCGUGGCAAAGUGGCUGUGGCUAGACUGCC"}},
  "note": "The source gives no read counts; variants with many changes may rest on few reads.",
  "data": [
    {"variants_of": "B1", "experiment": "self-cleavage, relative activity (ratio to wild type); higher = more cleavage; in vitro, sequencing; the parent is a self-cleaving ribozyme", "values": [
      {"variant": "G19A A24C A39C G40C", "self-cleavage": 0.04},
      {"variant": "G2C C3A C18A A41G", "self-cleavage": 0.05},
      {"variant": "A4G C13A G22C U43G", "self-cleavage": 0.03},
      {"variant": "A12C A16U U34A", "self-cleavage": 0.01},
      {"variant": "C10A C18A G36A", "self-cleavage": 0.08},
      {"variant": "A4U A12G C18A U28A", "self-cleavage": 0.01},
      {"variant": "C37A U38A G44A", "self-cleavage": 0.03},
      {"variant": "G2C U38G C42A C46G", "self-cleavage": 0.02},
      {"variant": "C3A A6C U9G A14C G29C U38A G44C C45G", "self-cleavage": 0.01},
      {"variant": "C10G U38C C45A", "self-cleavage": 0.01},
      {"variant": "G5A C18U G40A A41U", "self-cleavage": 0.06},
      {"variant": "A16G A26C G29U U43A", "self-cleavage": 0.01},
      {"variant": "U20G C23U C45U", "self-cleavage": 0.77},
      {"variant": "A14G A16G C23A A24G A26U C31G", "self-cleavage": 0.01},
      {"variant": "A4G G27A G30A", "self-cleavage": 0.12},
      {"variant": "A12U G29A C42U", "self-cleavage": 0.04},
      {"variant": "G2U C10A C18A A25G", "self-cleavage": 0.02},
      {"variant": "G1U A6G A14U G29U A41C U43G", "self-cleavage": 0.01},
      {"variant": "G17A A24C U28G C46G", "self-cleavage": 0.04},
      {"variant": "A25U G33A C42U", "self-cleavage": 0.28},
      {"variant": "C8G U20G G36C", "self-cleavage": 0.05},
      {"variant": "C15A C23G G27C A41U", "self-cleavage": 0.05},
      {"variant": "G5A C18G C37A", "self-cleavage": 0.16},
      {"variant": "G2C A12C U38C C46U", "self-cleavage": 0.04},
      {"variant": "G1A G2A A16C C46U", "self-cleavage": 0.43},
      {"variant": "G1A C10A G27A A39G", "self-cleavage": 0.13},
      {"variant": "G27C G30U C37G", "self-cleavage": 0.04},
      {"variant": "A6C A14C G30C G36U", "self-cleavage": 0.05},
      {"variant": "G2A G17A A41C", "self-cleavage": 0.26},
      {"variant": "C10A A24C G29A A41C", "self-cleavage": 0},
      {"variant": "G5A G30U C45A", "self-cleavage": 0.07},
      {"variant": "U9A A24U G30U", "self-cleavage": 0.08},
      {"variant": "G2U G27U C37U C42U C46U", "self-cleavage": 0.14},
      {"variant": "G17U G21C A24G G29A", "self-cleavage": 0.26},
      {"variant": "G2U G5U A24U C31U C46U", "self-cleavage": 0.02},
      {"variant": "G27C G36C C37A", "self-cleavage": 0.12},
      {"variant": "C13A A16U G21A G35U U43A G44C", "self-cleavage": 0.05},
      {"variant": "A4C C10A C15G G29U C31A C42A C45G", "self-cleavage": 0},
      {"variant": "A14U G17C G27U G29C", "self-cleavage": 0.05},
      {"variant": "C10U C31U A39U G40C", "self-cleavage": 0.05},
      {"variant": "G1A G5U U20G C23U C31U C45A", "self-cleavage": 0.06},
      {"variant": "G17U G36A C42G C45A", "self-cleavage": 0},
      {"variant": "C10G A14C G17C G44U", "self-cleavage": 0},
      {"variant": "G7A A14C U32C", "self-cleavage": 0.07},
      {"variant": "G36U U38C G44U", "self-cleavage": 0.01},
      {"variant": "C13U G22A G30U U34G U43C", "self-cleavage": 0.02},
      {"variant": "G1C A25G G35U", "self-cleavage": 0.01},
      {"variant": "C13A C15A A25G", "self-cleavage": 0.04},
      {"variant": "C8A U20C G33U C42A", "self-cleavage": 0.11},
      {"variant": "A6G A11U C13G", "self-cleavage": 0.02},
      {"variant": "C8A G17U U20G A41U", "self-cleavage": 0.17},
      {"variant": "G2U A24G G30C U32C", "self-cleavage": 0.05},
      {"variant": "C8U A26G A39C A41C", "self-cleavage": 0.04},
      {"variant": "C15G G30C C31U C42A", "self-cleavage": 0.01},
      {"variant": "G19U G21U G33A", "self-cleavage": 0.09},
      {"variant": "C18G C23A G36U A39G G40A", "self-cleavage": 0.03},
      {"variant": "G2U U9C G17A C37U U38A C45A", "self-cleavage": 0},
      {"variant": "G1C C18G C31A U43C", "self-cleavage": 0.02},
      {"variant": "C13U A25U A26U G29U", "self-cleavage": 0.47},
      {"variant": "G7U G21A G33C A41C", "self-cleavage": 0.14},
      {"variant": "C8A C18A A25C G44C C45A", "self-cleavage": 0.03},
      {"variant": "A14G G21U C46A", "self-cleavage": 0.78},
      {"variant": "C10A C23G A24C C45A", "self-cleavage": 0.02},
      {"variant": "A11U C15G G27U G29A", "self-cleavage": 0.01},
      {"variant": "A4C C8G U20C G33U", "self-cleavage": 0.83},
      {"variant": "A4G U28A U32C", "self-cleavage": 0.07},
      {"variant": "A4G G30A A39U", "self-cleavage": 0.15},
      {"variant": "G7C G22A C23A A26G G27C", "self-cleavage": 0.31},
      {"variant": "G2A A16U G44U", "self-cleavage": 0.07},
      {"variant": "G7C G22A C23A G29C C31A U32G G44A C45U", "self-cleavage": 0.01},
      {"variant": "G5U U20A C23U U32C", "self-cleavage": 0.01},
      {"variant": "G1A G33U G44A", "self-cleavage": 0.05},
      {"variant": "A12U C18U G40A C45U", "self-cleavage": 0.15},
      {"variant": "A4U G27U U28G", "self-cleavage": 0.08},
      {"variant": "G7A C10U A12G A25C", "self-cleavage": 0.01},
      {"variant": "C15U C37G C42U", "self-cleavage": 0.04},
      {"variant": "A6U G17A C37A A39G", "self-cleavage": 0.13},
      {"variant": "C10G G19C A41C", "self-cleavage": 0.02},
      {"variant": "C10A G17U G22U A25C", "self-cleavage": 0.05},
      {"variant": "C18U A25C U32A C37A", "self-cleavage": 0.05},
      {"variant": "C13A G27C U28G G36A", "self-cleavage": 0.06},
      {"variant": "C8A C13G U32G C37A", "self-cleavage": 0.26},
      {"variant": "C3A C8U A11C C18U A26G U28A U32G", "self-cleavage": 0},
      {"variant": "A16G A26U C37G", "self-cleavage": 0.02}
    ]}
  ]
}
